# According to the RNAGym collection of RNA variant scans (doi:10.7554/elife.90254):
# Read counts are not given, so values of variants with three or more changes are uncertain.
# B1: LINE1-mini (parent)
# chain: GGCAGAGCUCAACACAGCGUGGCAAAGUGGCUGUGGCUAGACUGCC
# Variants of: B1
# Assay: self-cleavage, relative activity (ratio to wild type); higher = more cleavage; in vitro, sequencing; the parent is a self-cleaving ribozyme
row,Variant,self-cleavage
1,C3G G7A C31A A41C,0.09
2,C3G C15U A25U G29A G30C C31U,0.36
3,C3G A4U A26G G33C C46A,0.13
4,C3G C10A A12U,0.1
5,C3G G5A G7U G40U,0.15
6,C3G A6U C10G A14C U20A G33A A39U,0
7,C3G C10A G22U G40U,0.05
8,C3G G7U A24U A39G,0.08
9,C3G A12U G36C G44A,0.26
10,C3G A4G A6C C13U C15U U43A,0.09
11,C3G C18U U20A U34G,0.02
12,C3G G5C U34A A39U A41G,0.03
13,C3G C23A U34C G44U,0.23
14,C3G G7A U43G,0.03
15,C3G A6G U9G G22A,0.12
16,C3G C10U C18U G29U,0.31
17,C3G A12C G19A G22C C45A,0
18,C3G C15A C18G A39C,0.06
19,C3G A6U A24U G44U,0.37
20,C3G A11G A14C U32G,0.02
21,C3G C8A U32G,0.28
22,C3G C15U G19U U20A A24G,0.54
23,C3G C10A A16G,0.01
24,C3G A24U A39C G44A,0.03

row,Variant,self-cleavage
1,C3G C13G G21A G22U,0.03
2,C3G G5A G36C,0.39
3,C3G G5A G36U,0.18
4,C3G G7C C10G C13U A24U,0.03
5,C3G A24G G29U,0.08
6,C3G A12G A41C,0.03
7,C3G A14U A25C G44U,0.06
8,C3G G7C U20A A26U U32A G35A C37A,0.01
9,C3G G5C A41C,0.21
10,C3G G5C A14C G19A C23G U38C,0.02
11,C3G A14G U32A C37U,0.05
12,C3G C10A G30U,0.03
13,C3G G7U C10G C13A U28G A39C,0.01
14,C3G A16G G40C C45A C46A,0.05
15,C3G A6U C10U A24C,0.03
16,C3G A11U C18A,0.02
17,C3G C10G C13A G17A C18A A24U A26G U32A U38C,0
18,C3G A25G G36U,0.06
19,C3G C15G G22U A26C,0.02
20,C3G C13G A16U G17A C23U U38C,0.17
21,C3G C18U C31A G36U U38A,0.04
22,C3G C10G U20A A25G G36C A41G C45A,0
23,C3G A12G A16C U28A,0.18
24,C3G C8A A11U C42U,0.03

row,Variant,self-cleavage
1,C3G G7A U20C,0.07
2,C3A U34A U38A,0.11
3,C3G A16U G17U A26C G40U,0.13
4,C3G C10U G30C G35A,0.02
5,C3G C10A C13G C31U,0.02
6,C3G A14U G19A,0.23
7,C3G C13G A24C A41G G44C,0.09
8,C3G C8U G33C C45U,0.13
9,C3G A14C C18A,0.04
10,C3G C13U G36U C46A,0.23
11,C3G A4G C8G C18A C37G U43A,0.01
12,C3G A25G C46U,0.11
13,C3G C13A U28A G36A C45A C46G,0.13
14,C3G A24C G36C,0.07
15,C3G G5U U20A C23A C31U,0.02
16,C3G A4C G7C G40C,0.05
17,C3A U32G U34A C42G,0.14
18,C3G C10A G21C C42G,0.01
19,C3G A14U A41G C42A,0.41
20,C3A U34G C42G,0.12
21,C3G C15G C45A C46A,0.02
22,C3G C13G G19U,0.91
23,C3G A6U G29U A39C U43A C45U,0.01
24,C3G C13U G30U C37A,0.13

row,Variant,self-cleavage
1,C3G C15U C23A G29U A39U C45U,0.07
2,C3G C10A C37A C45U,0.01
3,C3G G7A G30C G36C,2.45
4,C3G C37U G40U U43A,0.13
5,C3G G5A C8U G21C G40U,0.26
6,C3G C18U C46U,0.08
7,C3G A11C G19A C31U G33U C46A,0.05
8,C3G A39U C46U,0.14
9,C3G G5U A14U G21A A26C,0.04
10,C3G C13G A14U C18G G19C,0.68
11,C3G G7A G19A G22U G29U U32A,0.17
12,C3G A11C U20A,0.02
13,C3G C13G G17C A26G,0.06
14,C3G A4C A6G C13U,0.01
15,C3G C10G C18U,0.04
16,C3G G7C C10U A14U C15U G29C G44C,0.04
17,C3G A6G C10A G17C C37U,0.01
18,C3G A11C C15U G19A A26C G29A C42A,0.02
19,C3G A14G G17U G33U,0.2
20,C3G C13A C18U C45A,0.1
21,C3G G5C G21C G22C C23G G30U,0.03
22,C3G A11G A39U,0.02
23,C3G C15U A24G,0.23
24,C3G A4C U9G U38A C46A,0.09

row,Variant,self-cleavage
1,C3A U34G G35U A39U,0.1
2,C3G A4G G7A,0.17
3,C3G C8G C18G C31G,0.05
4,C3G A16U G21A C37A,0.29
5,C3G C31A U38C G40U,0.03
6,C3G A24U G35U,0.39
7,C3G A12G G17A G21U C37G,0.34
8,C3G G5A U9G C15G A24U U43A,0.08
9,C3G C31U U34G,0.09
10,C3G C8A A11U,0.04
11,C3G C31A A39G,0.03
12,C3G C10G A12G A26G C45A,0.01
13,C3G C13G G40C,0.06
14,C3G C13G G40U,0.05
15,C3G C8A A16G G21U,0.19
16,C3G G7U C42A,0.05
17,C3G A6G G19A U34A,0
18,C3G C8G U20A A25C G35C A39G,0.03
19,C3G G7C C23U A24G G27C A41C,0.03
20,C3G C18A C23U U43A,0.78
21,C3G G7U G19C A41U C45G,0.27
22,C3G A14C C18G C37G,0.04
23,C3G G5U C8G U20G G40U,0.05
24,C3A U34G U43A,0.02

row,Variant,self-cleavage
1,C3G C8A G19U,0.4
2,C3G A6G C23U,0.04
3,C3G C15A G17A G30C C37A U43A,0.24
4,C3G A11C C13A C37U,0.02
5,C3G C10U G19A,0.69
6,C3G A4C A14G C15A A26U,0.31
7,C3G C18A G21C G30A,0.22
8,C3G C10G A14U C46U,0.03
9,C3G C8G A16G C23G U32A G33C G35C,0.01
10,C3G G7A U9A A26U G29U G36C A39C,0.16
11,C3G G7C A41G G44A,0.01
12,C3G C13G A16C A26G A41C,0.15
13,C3G C8U G22U,0.88
14,C3G C15U G19U,0.07
15,C3G A26G U38G G44C,0.01
16,C3G C8G G35A,0.04
17,C3G G7C C37G,0.04
18,C3G C15G G17C,0.27
19,C3G A11C G21C,0.02
20,C3G C8G C23G A41C,0.15
21,C3G A14U G27U C45A,0.05
22,C3G A14U C15G A24U,0.05
23,C3G A6G G35U,0.07
24,C3G A11U G22C U43A,0.04

row,Variant,self-cleavage
1,C3G C8A C15G U34A,0.08
2,C3G C10A C37U,0.11
3,C3G A4U A14G C37U,0.44
4,C3G A6C A16U U32A,0.08
5,C3G C31A C37A,0.2
6,C3G A26U U34A A41U,0.03
7,C3G G5C C8A,0.14
8,C3G A12U C13G G35C,0.19
9,C3G A11U C13A G19A G30C,0.02
10,C3G C15U C18U G29A C37U,0.14
11,C3G C8A U9C C45A,0.6
12,C3G G7U C13A G36A,0.8
13,C3G A39G G44C,0.07
14,C3G A24G G44A,0.1
15,C3G C8A C45U,0.34
16,C3G A4G G27A,0.14
17,C3G C8A C10A C13U C23G,0.03
18,C3G C23A C42G G44U,0.02
19,C3G A24G U43A,0.34
20,C3G G7U C23U G27U,0.04
21,C3G C13A C15A C18A U38A,0.07
22,C3G G7U C8U A12U G27A G44U,0.55
23,C3G G5C A6C A11G G21U C46U,0.07
